Here are results for one substance from US20230270857A1.

This assay deals with CD3 on ex vivo expanded human T cells (Homo sapiens) (UniProt P07766). Briefly: flow cytometry referenced to quantum beads; 0.05 to 5 µg/10^6 cells of BsAb. On the technique in general: Flow cytometry measures light scatter and fluorescence of single cells or particles in a stream.

Entries with a single value are a further part of the results.

For the substance “HER2-BsAb (trastuzumab x huOKT3, IgG-[L]-scFv format) (bispecific antibody)”, the BsAb molecules bound per T cell (ABC) (molecules per T cell) reads like this: (arming dose 0.05 µg/10^6 cells) 600; (arming dose 5 µg/10^6 cells) 20400.
